According to PubChem BioAssay AID1645887 (National Center for Advancing Translational Sciences (NCATS), 2021):
Values joined by “and” are separate entries in the source; they are usually repeats but may differ in a detail not shown here. Identical values can stand only once. Hit rate of the full screen: of about 16,000 compounds, about 40 (0.2%) were called active. Inconclusive results (about 1%) are left out. Calls follow the shape of the dose curve; as a rule, active = well fitted activation curve with a large enough effect; inconclusive = small, poorly fitted or top-dose-only effect, or another doubt; inactive = no such curve, though single readings can be large or run the other way. Some of the results follow.

molecular target: Rap guanine nucleotide exchange factor 4 (Homo sapiens) (UniProt Q8WZA2); experiment: Validation qHTS for agonist of cAMP-regulated guanine nucleotide exchange factor 4 (EPAC2); conditions: EPAC2 Rap1B BODIPY-GDP exchange, fluorescence; activation: active compounds read high;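 also: exchange makes BODIPY-GDP fluorescence drop when released from Rap1B; series mostly up to about 150 µM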
Outline: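 Signal normalized against 6.5 mM cAMP as agonist control. Mix of EPAC2 (100 nM), RAP1B-BODIPY-GDP (250 nM) and GDP (50 uM) was read kinetically at 480/540 nm, every 5 min over 30 min, after 5 min room-temperature incubation with compound.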
% is scaled to controls: 0 for no effect and ±100 for the full control effect.

Sequence of UniProt Q8WZA2 (Q8WZA2 whole entry, looked up): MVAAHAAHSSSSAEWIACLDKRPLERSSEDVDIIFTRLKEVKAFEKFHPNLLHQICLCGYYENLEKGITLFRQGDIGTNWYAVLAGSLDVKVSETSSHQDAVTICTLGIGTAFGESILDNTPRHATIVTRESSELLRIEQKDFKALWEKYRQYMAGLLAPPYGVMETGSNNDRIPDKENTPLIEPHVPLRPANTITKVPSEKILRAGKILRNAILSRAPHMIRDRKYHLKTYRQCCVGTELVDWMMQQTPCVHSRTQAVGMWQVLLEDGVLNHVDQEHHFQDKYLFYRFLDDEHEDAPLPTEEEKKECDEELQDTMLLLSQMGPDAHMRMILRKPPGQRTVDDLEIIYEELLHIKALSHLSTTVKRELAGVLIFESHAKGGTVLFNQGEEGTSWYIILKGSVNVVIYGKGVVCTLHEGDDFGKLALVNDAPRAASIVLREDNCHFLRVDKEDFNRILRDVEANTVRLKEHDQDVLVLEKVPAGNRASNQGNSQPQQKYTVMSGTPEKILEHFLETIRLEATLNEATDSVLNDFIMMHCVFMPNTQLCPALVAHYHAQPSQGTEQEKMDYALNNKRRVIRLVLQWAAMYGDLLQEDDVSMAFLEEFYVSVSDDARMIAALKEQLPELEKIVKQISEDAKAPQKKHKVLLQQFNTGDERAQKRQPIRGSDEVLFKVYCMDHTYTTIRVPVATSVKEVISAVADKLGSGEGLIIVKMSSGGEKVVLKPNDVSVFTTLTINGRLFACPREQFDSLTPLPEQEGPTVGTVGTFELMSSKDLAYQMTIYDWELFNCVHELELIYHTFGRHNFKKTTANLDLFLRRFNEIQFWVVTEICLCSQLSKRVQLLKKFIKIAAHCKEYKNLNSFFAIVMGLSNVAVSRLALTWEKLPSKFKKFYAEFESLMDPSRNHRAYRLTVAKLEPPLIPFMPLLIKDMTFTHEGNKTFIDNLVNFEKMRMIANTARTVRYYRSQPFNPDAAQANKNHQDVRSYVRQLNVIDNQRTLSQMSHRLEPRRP

activation, inactive:
CN(C)CC(C)(O)c1ccc2c(c1)CN(C(=O)c1ccc(-n3cccn3)cc1)CCO2 (stereo not given) 0.141%
O=C(c1cnccn1)N1CCC2(CC1)CCN(c1ccccn1)CC2 -12%
COC(=O)C1CCN(Cc2ccc3c(c2)CN(C(=O)c2cc(C)nc(C)n2)CCO3)CC1 1.9%
COc1cc2c(N3CCN(C(=O)Nc4ccc(OC(C)C)cc4)CC3)ncnc2cc1OCCCN1CCCCC1 3.09%
CCCN1CCC(=O)N(CCSc2ccccc2)CC1 -16.5%
NC(=O)c1cn(Cc2c(F)cccc2F)nn1 -2.45% and -41.7%
Cc1ccnc2c(N)cccc12 -19.9%
O=S1(=O)CCO[C@H]2Cc3ccccc3[C@H]2N1Cc1ccc(F)cc1 -28.9%
Cc1cc(O)c2c(c1)C(=O)c1cccc(O)c1C2=O -16.6% and -5.99%
CC(=O)O[C@@]1(C(C)=O)CCC2C3C=C(Cl)C4=CC(=O)CC[C@]4(C)C3CC[C@]21C (stereo not given in full) -7.95%
CC(=O)c1ccc(F)c(-c2cc(C)cc3c2OC(CNC(=O)c2csc(C)n2)C3)c1 (stereo not given) -20%
O=S(=O)(c1ccccc1)N1CCC2(CCCN(c3ccncc3)C2)CC1 1.82%
c1ccc2[nH]ccc2c1 0.55%
Cc1ccc2nc(-c3ccccc3C)c(CN(CC3CCCO3)C(=O)c3cccs3)cc2c1 (stereo not given) -19.1%
O=C(N[C@@H]1CCC(=O)N(CC[C@H](Sc2ccc(Br)cc2)c2ccccc2)CC1)OCc1ccccc1 -6.81%
O=C(OCC(O)CO)c1ccccc1Nc1ccnc2cc(Cl)ccc12 (stereo not given) -37.1% and -1.78%
CC(=O)Oc1cc2c(c(C)c1OC(C)=O)CC=C1[C@]3(C)CC[C@]4(C)CC[C@@](C)(C(=O)O)CC4[C@]3(C)CC[C@]12C (stereo not given in full) -18.6%
COc1ccccc1CNc1nc(-c2ccoc2)nc2ccccc12 3.68%
C#Cc1cccc(Nc2ncnc3cc(OCCOC)c(OCCOC)cc23)c1 -17.6%
C[C@H](CCCC(C)(C)O)[C@H]1CC[C@H]2[C@@H]3CC=C4C[C@@H](O)CC[C@]4(C)[C@H]3CC[C@]12C -12.8%
CC(=O)N1CCC2(CCCN(Cc3ccc(C#N)cc3)C2)CC1 -9.87%
O=C1[C@H]2[C@H](C=CC[C@H]2C(=O)N2CCN(c3ccccc3)CC2)CCN1Cc1ccccc1 -5.5%
COc1ccc(-c2cn(Cc3ccc([N+](=O)[O-])cc3)nn2)cc1 -7.04%
COc1ccc(CNc2ncnc3ccc(-c4ccccc4OC)cc23)c(OC)c1 7.66%
N#Cc1cccc(-c2nc(NCc3ccccc3)c3ccccc3n2)c1 -16.5%
Cc1noc(C)c1-c1cc(Nc2ccc(F)cc2)ncn1 -33.7%
O=C(/C=C/c1ccc(O)cc1)c1ccccc1O -4.79%
CN[C@@H]1[C@H](O[C@H]2[C@H](O[C@H]3[C@H](O)[C@@H](O)[C@H](N=C(N)N)[C@@H](O)[C@@H]3N=C(N)N)O[C@@H](C)[C@]2(O)CO)O[C@@H](CO)[C@H](O)[C@H]1O -8.54%
COc1ccc2c(c1)-c1nc(-n3ncc(C(=O)NC[C@@H]4CCCN5CCCC[C@H]45)c3C)ncc1CC2 -1.31%
C=C1C2CC[C@@]3(C)C(c4ccoc4)OC(=O)C[C@@]13OC1CC(OC(C)=O)C(C)(C)C(CC(=O)OC)[C@@]12C (stereo not given in full) -21.8%
Cc1onc(-c2ccccc2Cl)c1C(=O)N[C@@H]1C(=O)N2[C@@H]1SC(C)(C)[C@@H]2C(=O)O -39.2%
Nc1ccc(S(=O)(=O)Nc2ccccc2)cc1 11.5%
Cc1cccc(C(=O)NCc2nc(-c3cccc(NC(=O)c4ccoc4C)c3)oc2C)n1 -11.3%
CC(C)Nc1cccnc1N1CCN(C(=O)c2cc3cc(NS(C)(=O)=O)ccc3[nH]2)CC1 -10.8%
CN(CC[C@@H](Oc1ccc(C(F)(F)F)cc1)c1ccccc1)CC(=O)O 1.01%
COc1ncc2nc(-c3cccs3)c(=O)n(CCc3ccccc3)c2n1 0.143%
NS(=O)(=O)c1cc2c(cc1Cl)NC=NS2(=O)=O -1.59% and 4.33% and -4.24%
Cc1ccc(CN2[C@@H]3c4ccccc4C[C@@H]3OCCS2(=O)=O)cc1 -29.9%
Cn1c(=O)c2[nH]c(-c3ccccc3)nc2n(C)c1=O -24.5%
COc1ccc(C(=O)N2CCC3(CCCN(c4ccncc4)C3)CC2)cc1 -3.13%
COc1ccccc1CNc1ccnc(-c2ccccc2CN(C)C)n1 -6.75%
C1CCN2C[C@H]3C[C@H](CN4CCCCC34)C2C1 (stereo not given in full) -9.9% and 4.39%
CN[C@@H]1[C@H](O)[C@H](NC)[C@H]2O[C@@]3(O)C(=O)C[C@@H](C)O[C@H]3O[C@@H]2[C@H]1O 11.2% and -15% and -21.4%
CCOC(=O)CN(C)C(=O)c1cnn(-c2ncc3c(n2)-c2ccccc2CCC3)c1C -9.8%
c1ccc(CNc2ccnc(-c3ccc4c(c3)OCO4)n2)cc1 4.21%
CC[C@H]1NC(=O)[C@@H](NC(=O)c2ncccc2O)[C@@H](C)OC(=O)[C@H](c2ccccc2)NC(=O)[C@@H]2CC(=O)CCN2C(=O)[C@H](Cc2ccccc2)N(C)C(=O)[C@@H]2CCCN2C1=O -7.79%
O=C(c1cnccn1)N1CCC2(CCCN(Cc3ccncc3)C2)CC1 -5.86%
NS(=O)(=O)c1cc2c(cc1Cl)NC(C(Cl)Cl)NS2(=O)=O (stereo not given) 0.9% and 5.51%
C[C@@H]1/C(=N/O)CC2C[C@@H]1C2(C)C -29.7%
CN1CCN(C2Cc3ccccc3Sc3ccc(Cl)cc32)CC1 (stereo not given) -19.4% and -48.1%
CCC(=O)Nc1ccc(O)cc1 -11.1%
CC(=O)NCCNc1ncncc1-c1ccccc1C(F)(F)F -4.64%
CCCCCCCC/C=C\C/C=C\C/C=C\CCCC(=O)O -10.2%
Cc1csc(SCC(=O)N2CCOc3ccc(C(O)C4CCCCC4)cc3C2)n1 (stereo not given) 1.02%
CN(Cc1ccco1)c1ccnc(-c2ccoc2)n1 -6.64%
CCC1CN(CCNC(=O)c2scc3c2OCCO3)Cc2cc(OC)ccc2O1 (stereo not given) 0.0055%
C/C(=C(/CCO)SSCC1CCCO1)N(C=O)Cc1cnc(C)nc1N (stereo not given) 4.57% and -0.574%
CN(C)C(=O)c1ccc(/C=C/c2ccnc3ccccc23)cc1 -1.79%
CCC1CN(CCNC(=O)c2cccc(C(=O)OC)c2)Cc2cc(OC)ccc2O1 (stereo not given) 2.43%
C=C(NC(=O)C(=C)NC(=O)c1csc(C2=NC3c4csc(n4)C4NC(=O)c5csc(n5)C(C(C)(O)C(C)O)NC(=O)C5CSC(=N5)C(=CC)NC(=O)C(C(C)O)NC(=O)c5csc(n5)C3(CC2)NC(=O)C(C)NC(=O)C(=C)NC(=O)C(C)NC(=O)C(C(C)CC)NC2C=Cc3c(C(C)O)cc(nc3C2O)C(=O)OC4C)n1)C(N)=O (stereo not given) -39.9%
COc1ccccc1C1CN(Cc2cccc(O)c2)Cc2ccccc2O1 (stereo not given) -12.2%
O=C(c1cccnc1)C1CCCN(Cc2ccc3c(c2)CN(C(=O)c2cnccn2)CCO3)C1 (stereo not given) -21.1%
CCC(=O)OCC(=O)C1(OC(=O)CC)C(C)CC2C3C(Cl)CC4=CC(=O)C=C[C@@]4(C)C3C(O)C[C@@]21C (stereo not given in full) -2.32%
CN[C@H](CC(=O)O)C(=O)O -34.9% and 5.49% and -9.11%
CCCCCC(O)/C=C/C=O (stereo not given) -7.63%
Cc1c(C(=O)N2CC3CCC2C3)sc2ncnc(NCc3ccco3)c12 (stereo not given) -12.2%
Cc1c(-c2ccccc2)oc2c(C(=O)OCCN3CCCCC3)cccc2c1=O -2.51%
Cn1cccc1C(=O)N1CCC2(CCN(Cc3ccncc3)CC2)CC1 -7.85%
C#Cc1cccc(C(=O)NCc2nc(-c3cccc(NC(=O)c4ccccn4)c3)oc2C)c1 11.2%
COc1ccccc1CN1CCCC2(CCN(S(C)(=O)=O)CC2)C1 -11.2%
COC(=O)c1cccc(C(=O)N2CCc3c(C(=O)OC)c(OCc4ccccn4)cc(=O)n3CC2)c1 1.38%
NC(=O)NCC(N)C(=O)O (stereo not given) -8.2%
CCCCCCCCCCCCCCCCCCCCCCO 7.7%
NCCc1cnc[nH]1 10.6% and 6% and -13.9%
COc1c2c(c(C(=O)/C=C/C(C)=C/c3ccccc3)c3c1OCO3)CCN(C)C2 -15.9%
COc1ccc(O)cc1 -14.3%
CCCN1CCC(=O)N([C@H](CN=[N+]=[N-])Cc2ccccc2)CC1 -11.3%
CN(C)c1ncc2ncc(=O)n(CCC#N)c2n1 -8.96%
CC(=O)NC(Cc1ccccc1)C(=O)O (stereo not given) -7.16%
O=C(OC1C[C@@H]2CC3C[C@H](C1)N2CC3=O)c1c[nH]c2ccccc12 (stereo not given in full) 8.91%
